PubChem BioAssay AID2675 (National Center for Advancing Translational Sciences (NCATS), 2010)
Among all 280,000 compounds or so, about 100 (0.036%) were called active. Inconclusive results, whose numbers are uncertain, are shown with a selection of clear calls. Calls come from the whole dose curve; as a rule, active = well fitted inhibition curve with a large enough effect in the signal ratio, with a control signal flat (not every such curve was filed as active); inconclusive = small, poorly fitted or top-dose-only effect, or effect the other way, or a change in a side signal; inactive = no such curve, though single readings can be large or run the other way; the % refers to the signal ratio. A potency beside an inconclusive call is a rough fit, not a confirmed value. “Side channel” marks fits to a control or component signal instead of the main read-out.

These molecules were tested against Muscleblind-like protein 1 (Homo sapiens) (UniProt Q9NR56) (assay: qHTS Assay for Inhibitors of MBNL1-poly(CUG) RNA binding). Settings: TR-FRET MBNL1-His/biotin-(CUG)12 binding, 665/545 ratio; activity change, negative = inhibition: at 57.5 µM (top of the series).
How it was run: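 Compound titration spanned 92 nM–58 uM against the MBNL1-His/biotin-(CUG)12 complex. After 60 min at room temperature with 5 nM streptavidin-XL665 and 0.055 ng/ul terbium anti-His, ratiometric 665/545 nm emission (Ex 340 nm) normalized to controls.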
% is set by controls: 0 for no effect and ±100 for the full control effect; potency is the fitted concentration of half-maximal effect; tags give direction and shape of the fitted curve or compound fluorescence and quenching.

UniProt Q9NR56, sequence (Q9NR56 whole entry, looked up): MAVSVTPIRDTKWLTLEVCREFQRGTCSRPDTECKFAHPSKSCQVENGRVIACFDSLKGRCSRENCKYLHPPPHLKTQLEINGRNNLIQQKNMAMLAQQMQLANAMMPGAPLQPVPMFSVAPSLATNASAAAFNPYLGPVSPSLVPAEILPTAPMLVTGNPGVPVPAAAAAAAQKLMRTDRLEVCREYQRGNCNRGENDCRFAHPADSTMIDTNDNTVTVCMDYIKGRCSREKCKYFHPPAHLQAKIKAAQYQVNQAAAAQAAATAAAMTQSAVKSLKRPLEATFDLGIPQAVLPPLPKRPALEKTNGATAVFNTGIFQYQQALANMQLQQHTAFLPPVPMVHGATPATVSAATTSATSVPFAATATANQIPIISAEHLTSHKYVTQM

Compound	Potency	activity change, negative = inhibition
O=c1ccc(-c2ccc(S(=O)(=O)Nc3ccc(F)cc3)o2)n[nH]1	inconclusive: 31.6 µM [quencher, side channel, partial curve]	–
COC(=O)[C@@H](NC(=O)c1ccc2c(c1)S(=O)(=O)c1ccccc1C2=O)C(C)C	inconclusive: 11.2 µM [quencher, side channel, partial curve]	–
COc1cccc(CNC(=O)CCC2CCCN(C(=O)CCn3cncn3)C2)c1 (configuration not stated)	inactive	–
Cc1ccc(NC(=S)NCc2ccc3c(c2)OCO3)cc1	inconclusive: 0.316 µM [fluorescent, side channel, full curve, poor fit]	–
O=C(O)CC(NC(=O)C1CCCCC1)c1cc([N+](=O)[O-])ccc1Cl (configuration not stated)	inconclusive: 17.8 µM [quencher, side channel, partial curve]	–
CCOC(=O)c1ccc(N2C(=O)C(O)=C(C(C)=O)C2c2ccc([N+](=O)[O-])cc2)cc1 (configuration not stated)	inconclusive: 28.2 µM [quencher, side channel, partial curve]	–
Cc1cc(C)cc(NC(=O)/C=C/c2ccc([N+](=O)[O-])s2)c1	inactive	–
O=C(NC1CCCCCC1)c1ccc[nH]c1=S	inactive	–
COc1ccc(/C=C2\Oc3cc(OCC(=O)N4CCC[C@H]4C(=O)O)ccc3C2=O)c(OC)c1OC	inconclusive: 8.91 µM [quencher, side channel, partial curve]	–
Cc1nnc(SCc2ccc(C(=O)c3ccc(Cl)cc3)o2)n1-c1ccccc1	inconclusive: 39.8 µM [quencher, single point]	–
COc1cc(N=C2C(=O)N3CCCc4cccc2c43)cc(OC)c1	inactive	–
COc1cc2cc(NC(C)=O)cc(NCc3ccccc3)c2cc1OC	inconclusive: 6.31 µM [quencher, side channel, partial curve]	–
CCOc1ccc(CCN2C(=O)c3cccnc3C2=O)cc1OCC	inconclusive: 14.1 µM [quencher, side channel, partial curve]	–
Cc1ccc(CNC(=O)CSc2ccsc2[N+](=O)[O-])cc1	inconclusive: 4.47 µM [quencher, side channel, partial curve]	–
CCOC(=O)N1CCC(NC(=O)C2CCN(c3ccc(N4CCOCC4)nn3)CC2)CC1	inconclusive: 22.4 µM [quencher, side channel, single point]	–
CCOC(=O)c1c(C)sc2c1N(C(=O)CCl)c1cc(Cl)ccc1S2	inactive	–
CCOC(=O)NC(=O)CSc1cc(C)c2cc(C)cc(C)c2n1	inconclusive: 25.1 µM [fluorescent, side channel, single point]	–
CCCCCn1cnc2sc(CC)cc2c1=O	inconclusive: 100 µM [inhibitor, partial curve]	–
O=C1c2ccccc2C(=O)N1CN(C(=O)c1ccccc1[N+](=O)[O-])c1ccc(F)cc1	inconclusive: 11.2 µM [quencher, side channel, partial curve]	–
O=C(c1ccc(F)cc1)N1CCN(c2ccc([N+](=O)[O-])c(N3CCCCC3)c2)CC1	inconclusive: 28.2 µM [quencher, side channel, partial curve]	–
Cc1ccc(C)c(S(=O)(=O)N2C(=S)NC(=O)C2CC(C)C)c1 (configuration not stated)	inactive	–

Compound	Potency	activity change, negative = inhibition
Cc1noc(C)c1CSc1ccccc1C(=O)O	inactive	–
Cc1cccc(CN2CCN(Cc3cccc4nonc34)CC2CCO)n1 (configuration not stated)	inconclusive: 15.8 µM [quencher, side channel, partial curve]	–
Cc1cc(O)c(NC(=S)NC(=O)c2ccc(-c3ccc(Cl)cc3)o2)cc1C	inactive	–
COCCN(C(C)=O)c1nnc(-c2cnccn2)s1	inconclusive: 28.2 µM [quencher, side channel, single point]	–
COc1ccc(NC(=O)C2CCN(S(=O)(=O)c3cccc4nonc34)CC2)cc1OC	inconclusive: 4.47 µM [quencher, side channel, full curve]	–
Nc1nonc1-c1noc(N2CCOCC2)n1	inconclusive: 79.4 µM [inhibitor, single point]	–
CC(C)c1nc2sc3c(NCc4ccco4)ncnc3c2c2c1COC(C)(C)C2	inactive	–
COc1ccc(NC(=O)Nc2cccs2)cc1Cl	inactive	–
COCCNC(=O)/C(C#N)=C/c1c(N2CCCCCC2)nc2ccccn2c1=O	inconclusive: 14.1 µM [quencher, side channel, partial curve]	–
Cc1ccc([N+](=O)[O-])cc1NC(=S)NC(=O)C(C)(C)C	inconclusive: 31.6 µM [quencher, side channel, single point]	–
COc1ccc(/C=N/NC(=S)N[C@H]2CC3CCC2C3)cc1 (some centres not stated)	inactive	–
COc1cccc(C(=O)Nc2c3c(nn2-c2ccc([N+](=O)[O-])cc2)CS(=O)(=O)C3)c1	inconclusive: 3.98 µM [quencher, side channel, full curve]	–
COc1cccc(NC(=S)NC(=O)c2c(Cl)c(C)nn2C)c1	inconclusive: 7.08 µM [fluorescent, side channel, partial curve]	–
Oc1[nH]c(=S)sc1C=C1N=c2ccccc2=N1	inconclusive: 14.1 µM [quencher, side channel, partial curve, poor fit]	–
CC1(C)NC(=O)N(CC(=O)OCC(=O)Nc2cc(S(=O)(=O)N3CCCCCC3)ccc2Cl)C1=O	–	inconclusive: -26.1% [phenotype inactive]
O=C(OCC1OC2OC3(CCCCC3)OC2C2OC3(CCCCC3)OC12)c1ccccc1 (configuration not stated)	inconclusive: 39.8 µM [fluorescent, side channel, single point]	–
COCCOC(=O)c1[nH]c2c(c1C)C(=O)CC(c1cc(OC)ccc1OC)C2 (configuration not stated)	inactive	–
O=C(O)C1CCN(S(=O)(=O)c2cccc3nonc23)CC1	inconclusive: 11.2 µM [quencher, side channel, partial curve]	–
Cc1ccc2nc(N/N=C/c3ccco3)cc(C)c2c1	inconclusive: 15.8 µM [quencher, side channel, partial curve]	–
Cc1cc([N+](=O)[O-])c(-c2ccc(/C=N/n3cnnc3)o2)cc1Cl	inconclusive: 12.6 µM [quencher, side channel, partial curve]	–
N#C/C(=C/c1ccc([N+](=O)[O-])cc1)C(N)=O	inconclusive: 15.8 µM [quencher, single point]	–

Compound	Potency	activity change, negative = inhibition
CC(=O)c1ccc(OCC(=O)NC2CCCN(Cc3ccccc3F)C2)cc1 (configuration not stated)	inactive	–
N#Cc1c(=O)c2nc(NCc3ccccc3)ncc2n2ccccc12	inconclusive: 3.55 µM [quencher, side channel, full curve]	–
CC(=O)c1c(C)nc(C)nc1NC(=O)Cc1ccccc1	inconclusive: 4.47 µM [quencher, side channel, single point]	–
COc1cc(/C=C(\C#N)c2nc3ccc(C)cc3[nH]2)cc([N+](=O)[O-])c1O	inconclusive: 14.1 µM [quencher, side channel, partial curve]	–
COC(=O)CCCC1=CC2=CC(=O)C(C)(OC(=O)c3cccs3)C(=O)C2=CN1CCc1c[nH]c2ccccc12 (configuration not stated)	inconclusive: 12.6 µM [quencher, side channel, partial curve]	–
O=C(N/N=C/C1CC=CCC1)c1ccc(Cl)cc1O (configuration not stated)	inconclusive: 0.0891 µM [fluorescent, side channel, partial curve]	–
O=C(NCCN1CCc2ccccc2C1)Nc1ccc([N+](=O)[O-])cc1	inconclusive: 15.8 µM [quencher, partial curve]	–
Cn1c(CO)cnc1SCc1ccc(F)cc1	inconclusive: 0.631 µM [fluorescent, side channel, single point]	–
CCN1C(=O)c2cccc3c(S(=O)(=O)N(C(=O)c4ccncc4)c4ccc(OC)cc4)ccc1c23	inconclusive: 28.2 µM [quencher, side channel, single point]	–
COc1ccc(-c2cc(-c3ccco3)[nH]c(=O)c2C#N)cc1	inconclusive: 15.8 µM [quencher, side channel, partial curve]	–
COc1cccc(N2CCN(c3ccc(N4C(=O)CCC4=O)cc3[N+](=O)[O-])CC2)c1	inconclusive: 14.1 µM [quencher, side channel, partial curve]	–
Cc1cc(C)n2c(SCC#N)nnc2n1	inactive	–
COc1ccc(Cc2n[nH]c(=S)n2NC(=O)Nc2ccc(C)cc2)cc1	active: 25.1 µM	–
COc1ccc(CNC(=O)COc2cc(O)c3c(c2)OC(C)(C)CC3=O)cc1	inactive	–
CCSc1ncnc2c1sc1nc3c(cc12)COC(C)(C)C3	inconclusive: 12.6 µM [fluorescent, side channel, single point]	–
O=c1c2ccccc2nc(/C=C/c2cccc([N+](=O)[O-])c2)n1CCO	inconclusive: 11.2 µM [activator, single point]	–
COC(=O)Cc1ccc(NC(=O)c2ccc3c(c2)C(=O)N(CC2CCCO2)C3=O)cc1 (configuration not stated)	inconclusive: 2.51 µM [quencher, side channel, full curve, poor fit]	–
c1ccc(SCCOCCN2CCc3ccccc3C2)cc1	inactive	–
COc1cc2c(cc1NC(=O)Cc1ccc(C)cc1)oc1ccccc12	inactive	–
CCC1CCCCN1C(=S)NC(=O)c1ccc([N+](=O)[O-])cc1 (configuration not stated)	inconclusive: 39.8 µM [quencher, side channel, single point]	–
